Reference: PMC11381810, “Intermediate steps in the formation of neuronal SNARE complexes” (The Journal of Biological Chemistry, 2024)

B1: SN1 ([…]) V48C, spin-labelled (48R1) (domain or fragment)
chain: not shown
modifications: nitroxide side chain R1 (cysteine reacted with the MTS reagent) at 48
notes: SN1 SNARE domain of SNAP25a (isoform a), Rattus norvegicus, […]; also called 48R1 SNAP25 SN1; spin-labeled SN1; source: E. coli BL21(DE3), purified (Ni2+-NTA, thrombin, anion exchange), spin-labelled
B2: SN1 ([…]) E38C, spin-labelled (38R1) (domain or fragment)
chain: not shown
modifications: nitroxide side chain R1 (cysteine reacted with the MTS reagent) at 38
notes: SN1 SNARE domain of SNAP25a (isoform a), Rattus norvegicus, […]; also called 38R1 SN1; spin-labeled SN1; source: E. coli BL21(DE3), purified (Ni2+-NTA, thrombin, anion exchange), spin-labelled
B3: SN1 ([…]) D23C, spin-labelled (23R1) (domain or fragment)
chain: not shown
modifications: nitroxide side chain R1 (cysteine reacted with the MTS reagent) at 23
notes: SN1 SNARE domain of SNAP25a (isoform a), Rattus norvegicus, […]; also called 23R1 SN1; spin-labeled SN1; source: E. coli BL21(DE3), purified (Ni2+-NTA, thrombin, anion exchange), spin-labelled

Biological target: the molecule itself
Assay: DEER; Q-band four-pulse DEER at 50 K, 20% deuterated glycerol, flash frozen; isolated single-labelled SN1 (26 μM for 23R1) or SN2 (31 μM for 173R1)

Binding result, binds:
B1
B2
B3
